Measurements reported in PMC4336329 (PLoS ONE, 2015).
Out of some 310,000 compounds screened, about 2,200 (0.71%) showed an effect of 50% or more. Effects have a minus sign here. Some of the results follow.

molecular target: human ether-à-go-go-related gene (hERG) potassium channel (human, UniProt Q12809); assay: primary screen, population patch clamp on CHO cells stably expressing hERG
Sequence (Q12809 whole entry, looked up): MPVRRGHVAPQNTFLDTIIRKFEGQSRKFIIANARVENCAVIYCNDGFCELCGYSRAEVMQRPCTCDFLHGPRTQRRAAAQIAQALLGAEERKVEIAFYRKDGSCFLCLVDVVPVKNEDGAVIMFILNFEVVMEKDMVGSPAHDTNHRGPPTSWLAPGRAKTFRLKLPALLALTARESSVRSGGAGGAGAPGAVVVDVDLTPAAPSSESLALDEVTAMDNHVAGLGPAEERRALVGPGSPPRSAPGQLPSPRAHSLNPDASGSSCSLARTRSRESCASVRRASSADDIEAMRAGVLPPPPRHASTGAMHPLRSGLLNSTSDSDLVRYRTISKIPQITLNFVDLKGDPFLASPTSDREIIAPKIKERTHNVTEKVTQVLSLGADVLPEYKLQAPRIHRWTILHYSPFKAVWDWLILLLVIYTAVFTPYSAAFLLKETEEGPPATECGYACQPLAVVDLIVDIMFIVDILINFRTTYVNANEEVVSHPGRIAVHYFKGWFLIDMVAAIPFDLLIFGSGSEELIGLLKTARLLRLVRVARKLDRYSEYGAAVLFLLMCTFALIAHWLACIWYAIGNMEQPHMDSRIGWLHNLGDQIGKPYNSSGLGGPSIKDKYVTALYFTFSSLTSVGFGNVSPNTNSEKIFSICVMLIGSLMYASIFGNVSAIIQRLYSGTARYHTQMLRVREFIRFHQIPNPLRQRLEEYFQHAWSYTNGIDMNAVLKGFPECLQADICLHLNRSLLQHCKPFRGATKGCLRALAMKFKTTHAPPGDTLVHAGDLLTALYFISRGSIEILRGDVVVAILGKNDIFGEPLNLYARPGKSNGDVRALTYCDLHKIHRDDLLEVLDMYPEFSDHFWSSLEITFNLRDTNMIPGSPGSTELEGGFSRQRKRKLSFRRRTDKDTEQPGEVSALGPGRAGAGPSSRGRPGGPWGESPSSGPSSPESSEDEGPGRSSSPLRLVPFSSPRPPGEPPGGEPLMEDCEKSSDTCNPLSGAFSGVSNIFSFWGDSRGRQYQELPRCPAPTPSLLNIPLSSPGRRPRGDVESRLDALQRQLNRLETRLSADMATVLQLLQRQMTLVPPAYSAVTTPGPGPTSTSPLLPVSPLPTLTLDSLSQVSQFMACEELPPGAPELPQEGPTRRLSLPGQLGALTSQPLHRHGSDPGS

Compared with `O=C(O)c1cc(-c2ccco2)nn1-c1cccc(Cl)c1`, `O=C(Nc1ccc2c(c1)COC2=O)c1ccc(Cl)c(Cl)c1` is higher in “hERG current change (%, negative = inhibition) at 1uM” value: -0.594% for the first, 23.6% for the second.

First: O=C(NCCCn1ccnc1)c1cc(-c2ccc(Cl)cc2)nc2ccccc12
Second: CN1CCN(C(=O)c2cc3nc(-c4ccccc4)cc(-c4ccccc4)n3n2)CC1
The “hERG current change (%, negative = inhibition) at 1uM” value of the first is lower: -45.1% for the first, 0.764% for the second.

Compared with `S=C(NCCc1c[nH]c2ccccc12)NC1CCCCC1`, `Cc1ccc(S(=O)(=O)NCC(=O)NCCc2c[nH]c3ccccc23)cc1C` is higher in “hERG current change (%, negative = inhibition) at 1uM” value: 1.46% for the first, 7.54% for the second.

Compared with `Cc1ccc(CNC(=O)Cn2c(=O)n(CC(=O)N3CCCCC3)c(=O)c3sccc32)cc1`, `Cc1cccc2c(=O)cc(C)n(CC(=O)N3CCCCC3)c12` is lower in “hERG current change (%, negative = inhibition) at 1uM” value: 14.8% for the first, 9.18% for the second.

First: CCCCN(C(=O)c1cccc(-n2cccc2)c1)c1c(N)n(CCCC)c(=O)[nH]c1=O
Second: CCCCN(C(=O)Cn1nnc2ccccc21)C(C(=O)NCCOC)c1ccc(OC)cc1 (stereo not drawn)
The “hERG current change (%, negative = inhibition) at 1uM” value of the first is lower: 6.02% for the first, 6.23% for the second.

Going from `CCOCCCNc1ncnc2c1nc1n2CCCC1` to `CCOC(=O)C1CCCN(CC(=O)Nc2nccs2)C1` (stereo not drawn), the “hERG current change (%, negative = inhibition) at 1uM” value falls from 6.87% to 4.09%.

Going from `O=C(Nc1nc(-c2ccccc2)c(C(=O)c2ccccc2)s1)c1ccc(S(=O)(=O)N2CCCC2)cc1` to `Cc1ccc(NC(=O)C(C)Oc2ccccc2)cc1S(=O)(=O)N1CCCCCC1` (stereo not drawn), the “hERG current change (%, negative = inhibition) at 1uM” value rises from 6.05% to 9.52%.

First: CCN(c1ccc(OC)cc1)S(=O)(=O)c1nnc(NC(=O)COc2ccccc2)s1
Second: COc1ccc(C(C)NS(=O)(=O)Cc2ccccc2)cc1 (stereo not drawn)
The “hERG current change (%, negative = inhibition) at 1uM” value of the first is higher: 14.8% for the first, 12.9% for the second.

Going from `O=C(N/N=C/c1ccc(-c2ccc([N+](=O)[O-])cc2)o1)C(O)c1ccccc1` (stereo not drawn) to `Cn1c(SCC(=O)N/N=C/c2cccnc2)nnc1-c1ccccc1`, the “hERG current change (%, negative = inhibition) at 1uM” value rises from -0.457% to 14.8%.

First: COc1ccc(Cc2nc(-c3ccc(Br)o3)no2)cc1OC
Second: COc1ccc(C(=O)NNC2CC(=O)N(Cc3ccc(Cl)cc3)C2=O)cc1OC (stereo not drawn)
The “hERG current change (%, negative = inhibition) at 1uM” value of the first is lower: -3% for the first, 9.19% for the second.

First: CCOC(=O)C1CCN(C(=O)c2oc3ccc4c(c3c2C)C(O)CC2(CCCCC2)O4)CC1 (stereo not drawn)
Second: CCOC(=O)N1CCN(C(=O)c2cn(CC)c3ccc(S(=O)(=O)N(C)C4CCCCC4)cc3c2=O)CC1
The “hERG current change (%, negative = inhibition) at 1uM” value of the first is higher: 9.04% for the first, 7.96% for the second.

Going from `COc1ccc(OCC(=O)N2c3ccccc3CCc3ccccc32)cc1` to `COc1ccc(N2CCN(Cc3cc(=O)c(OCC(=O)Nc4ccccc4)co3)CC2)cc1`, the “hERG current change (%, negative = inhibition) at 1uM” value falls from 15.9% to 6.56%.

Compared with `COc1cc(-c2nc3ccccc3c(=O)n2N)cc(OC)c1OC`, `COc1ccccc1CNS(=O)(=O)c1cc(-c2cc(C)no2)ccc1C(C)C` is lower in “hERG current change (%, negative = inhibition) at 1uM” value: 16.7% for the first, 11.8% for the second.

Compared with `CC(C)(C)c1ccc(-n2ncc3c2CCCC3NC(=O)c2ccncc2)cc1` (stereo not drawn), `O=C(Nc1ccncc1)C1c2ccccc2Oc2ccccc21` is higher in “hERG current change (%, negative = inhibition) at 1uM” value: 2.75% for the first, 8.36% for the second.

Going from `O=C(Nc1ccc(Br)cc1)c1ccco1` to `Cc1ccc(-c2nnc(-c3ccc(NC(=O)c4cccs4)cc3)o2)cc1`, the “hERG current change (%, negative = inhibition) at 1uM” value rises from 3.88% to 4.62%.

Compared with `COC(=O)c1n[nH]nc1-c1ccccc1`, `O=C(Nc1ccccc1-c1ccccc1)C1CCCC1` is higher in “hERG current change (%, negative = inhibition) at 1uM” value: -10.3% for the first, 4.23% for the second.

Compared with `COCOc1ccc(C2CC(=O)c3c(OCOC)cc(OCOC)cc3O2)cc1` (stereo not drawn), `COc1ccc2sc(N3C(=O)CC(Cc4cccc(C)c4)C3=O)nc2c1` (stereo not drawn) is lower in “hERG current change (%, negative = inhibition) at 1uM” value: 9.9% for the first, -0.216% for the second.

First: Cc1nn(Cc2ccc(Cl)cc2Cl)c(C)c1NC(=O)c1sc2ccccc2c1Cl
Second: S=C1Nc2cc(Cl)ccc2Sc2ccccc21
The “hERG current change (%, negative = inhibition) at 1uM” value of the first is lower: 9.61% for the first, 13.7% for the second.

First: CCCN(CC(=O)Nc1ccccc1C)C(=O)COc1c(C)cccc1C
Second: O=C(CN(Cc1ccco1)C(=O)c1ccc(F)cc1F)Nc1ccccc1C(F)(F)F
The “hERG current change (%, negative = inhibition) at 1uM” value of the first is higher: 5.9% for the first, 3.35% for the second.

Compared with `CC1(C)Oc2ccc3ccc(=O)oc3c2/C(=C/NC2CCCCC2)C1=O`, `O=C(CCNC(=O)c1ccc(Cl)cc1)NC1CCCCCC1` is lower in “hERG current change (%, negative = inhibition) at 1uM” value: 11.9% for the first, -8.08% for the second.

First: O=C1/C(=C\c2cc3c(cc2Cl)OCO3)N2CCC1CC2
Second: O=C1C(=O)N(CCCN2CCOCC2)C(c2ccc(Cl)cc2)/C1=C(\O)c1ccc2c(c1)OCCO2 (stereo not drawn)
The “hERG current change (%, negative = inhibition) at 1uM” value of the first is higher: 12% for the first, 10.2% for the second.

First: O=C1CCCCCCCCCC/C(=N\O)CCCO1
Second: Cc1ccc(CNC(=O)C2CC(=O)N(C3CCCC3)C2)cc1 (stereo not drawn)
The “hERG current change (%, negative = inhibition) at 1uM” value of the first is lower: 7.87% for the first, 8.91% for the second.

First: Cc1cccc(CSc2nc3ccncc3n2CC(=O)Nc2cc(C)cc(C)c2)c1
Second: CCOC(=O)CSc1ccc(-c2nc3cc(C)c(C)cc3[nH]2)cn1
The “hERG current change (%, negative = inhibition) at 1uM” value of the first is lower: 11% for the first, 21.5% for the second.

Compared with `O=c1[nH]c(C2CCN(S(=O)(=O)Cc3ccccc3)CC2)nc2c1nnn2Cc1cccc(Cl)c1`, `CN(CCOc1ccccc1)C(=O)c1ccc(Cl)c(S(=O)(=O)N2CCCCC2)c1` is lower in “hERG current change (%, negative = inhibition) at 1uM” value: 10% for the first, -15.9% for the second.

Going from `Cn1c(=O)n(CC(=O)O)c(=O)c2c1nc1n2CCS1` to `COc1ccc2nc(NC(=O)CN3CCN(C)CC3)sc2c1.Cl`, the “hERG current change (%, negative = inhibition) at 1uM” value falls from -3.42% to -3.94%.

Going from `CC(C)c1ccc(OCC(O)CN2CCCC2)cc1.Cl` (stereo not drawn) to `Cc1ccc(C)c(N2CCN(CCN3CCCCC3)CC2)c1.Cl`, the “hERG current change (%, negative = inhibition) at 1uM” value falls from 10.8% to 7.07%.

First: Cn1nc(C(C)(C)C)cc1C(=O)NCc1cc(F)cc2c1OCOC2
Second: Cc1ccc2cc3cc(C(=O)NCCC(C)C)oc3nc2c1
The “hERG current change (%, negative = inhibition) at 1uM” value of the first is higher: 11.3% for the first, 10.1% for the second.

Compared with `CC(=O)c1cnc2nc(SCc3ccc(Cl)cc3)nn2c1C`, `Cc1cc(NC(=O)CCCn2cc([N+](=O)[O-])cn2)n(Cc2ccc(F)cc2)n1` is lower in “hERG current change (%, negative = inhibition) at 1uM” value: 8.86% for the first, 5.14% for the second.

Going from `CC(C(=O)Nc1cc([N+](=O)[O-])ccc1Cl)N1CCN(c2ccccc2O)CC1` (stereo not drawn) to `CC(C)C(=O)Nc1ccc(N2CCN(C(=O)c3cccs3)CC2)cc1`, the “hERG current change (%, negative = inhibition) at 1uM” value falls from 4.85% to 3.3%.

Going from `CCOC(=O)C1CCCN(C(=O)CNC(=O)c2nn(-c3ccc(OC)c(Cl)c3)c(=O)c3ccccc23)C1` (stereo not drawn) to `Cn1nc(C(=O)OCC(=O)Nc2ccccc2[N+](=O)[O-])c2ccccc2c1=O`, the “hERG current change (%, negative = inhibition) at 1uM” value falls from 13.7% to 0.155%.

Going from `CCOC(=O)c1c(C)[nH]c(C)c1S(=O)(=O)N1CCN(c2cccc(C)c2)C(C)C1` (stereo not drawn) to `CC1=CC(C)(C)N(S(=O)(=O)c2ccc(F)cc2)c2ccc(C)cc21`, the “hERG current change (%, negative = inhibition) at 1uM” value falls from 1.51% to 0.634%.

Going from `O=C(c1cccs1)N1CCN(C23CC4CC(CC(C4)C2)C3)CC1` to `CC1CCN(C(=O)C2CCN(S(=O)(=O)c3cccc4nsnc34)CC2)CC1`, the “hERG current change (%, negative = inhibition) at 1uM” value rises from -8.84% to 3.13%.

Going from `CCCC(C)C(=O)NCc1ccncc1` (stereo not drawn) to `COc1ccc(N(C(C)C(=O)NCCSCc2cccc(Cl)c2)S(C)(=O)=O)cc1` (stereo not drawn), the “hERG current change (%, negative = inhibition) at 1uM” value falls from 16.2% to 7.92%.

Going from `CN(c1ccccc1C(=O)O)S(=O)(=O)c1ccc2c3c(cccc13)C(=O)N2` to `NC(=O)c1ccc2c(c1)S(=O)(=O)c1ccccc1C2=O`, the “hERG current change (%, negative = inhibition) at 1uM” value rises from 3.33% to 17.9%.

First: O=C(Nc1cccc(OC(=O)N2CCOCC2)c1)N1CCOCC1
Second: O=C(Nc1ccccc1)n1cc(-c2ccccn2)c(N2CCOCC2)n1
The “hERG current change (%, negative = inhibition) at 1uM” value of the first is higher: 20.2% for the first, 8.12% for the second.

Compared with `Fc1ccc(CSc2nncn2NC/C=C/c2ccccc2)cc1`, `NC(=O)CSc1nc2cccnc2n1-c1ccc(F)cc1` is higher in “hERG current change (%, negative = inhibition) at 1uM” value: 8.25% for the first, 12.2% for the second.

First: CC(=O)n1cc([C@H]2C=C(C(=O)N3CCOCC3)O[C@@H](OCc3ccc(CO)cc3)C2)c2ccccc21
Second: FCCCOc1ccc(CN2CCN(c3ccccc3F)CC2)cc1
The “hERG current change (%, negative = inhibition) at 1uM” value of the first is higher: -4.69% for the first, -7.45% for the second.

Compared with `O=C(NNC(=O)c1ccc(Br)s1)c1ccc(F)c(S(=O)(=O)N2CCOCC2)c1`, `N#C/C(=N\Nc1ccc(S(=O)(=O)N2CCc3ccccc32)cc1)C(N)=S` is higher in “hERG current change (%, negative = inhibition) at 1uM” value: 0.537% for the first, 17.6% for the second.

First: CC(=O)c1nnn(-c2nc(N)nc(N(c3ccccc3)c3ccccc3)n2)c1C
Second: CC1Cc2ccccc2N1C(=O)CSc1nnc2sc3ccccc3n12 (stereo not drawn)
The “hERG current change (%, negative = inhibition) at 1uM” value of the first is lower: 6.79% for the first, 11.9% for the second.

Going from `C#CCn1c(C)cc(C)c(S(=O)(=O)c2ccccc2)c1=O` to `Cc1c(O)c(=O)c2ccccc2n1C`, the “hERG current change (%, negative = inhibition) at 1uM” value rises from 9.06% to 16%.

Compared with `COc1cccc(C(=O)NC2CC(C)(C)NC(C)(C)C2)c1OC`, `COc1cc(CNC2CCC(C)C2)cc(OC)c1` (stereo not drawn) is higher in “hERG current change (%, negative = inhibition) at 1uM” value: 5.4% for the first, 12.3% for the second.

First: Cc1c([N+](=O)[O-])c(C(=O)N2CCCC2)nn1C
Second: COc1cccc(C(=O)N2CCC(N3CC(C)OC(C)C3)CC2)c1.O=C(O)C(=O)O (stereo not drawn)
The “hERG current change (%, negative = inhibition) at 1uM” value of the first is lower: 3.86% for the first, 12.9% for the second.

Going from `O=C(Nc1ccc(F)cc1)N1CCCN(c2ccc(C(F)(F)F)cn2)CC1` to `COC(=O)C1=C(Nc2ccc(C)cc2)C=C(C)C(C(=O)OC)C1c1ccc(F)cc1` (stereo not drawn), the “hERG current change (%, negative = inhibition) at 1uM” value rises from -2.54% to 12.6%.

With `O=c1c(OC2OC(CO)C(O)C(O)C2O)c(-c2ccc(O)c(O)c2)oc2cc(O)cc(O)c12` (stereo not drawn) the “hERG current change (%, negative = inhibition) at 1uM” value was 19.6%.
